# Results as given in the supplement of paper PMC12217912.
# This is one part of the list. The full chains were built here from the parent and the listed change. Inactive controls read about 0.05.
# B1: TEV protease; numbered along this chain (parent)
# chain: MGESLFKGPRDYNPISSSICHLTNESDGHTTSLYGIGFGPFIITNKHLFRRNNGTLVVQSLHGVFKVKDTTTLQQHLVDGRDMIIIRMPKDFPPFPQKLKFREPQREERICLVTTNFQTKSMSSMVSDTSCTFPSGDGIFWKHWIQTKDGQCGSPLVSTRDGFIVGIHSASNFTNTNNYFTSVPKNFMELLTNQEAQQWVSGWRLNADSVLWGGHKVFMVKPEEPFQPVKEATQL
# Variants of: B1
# Assay: raw area under fraction-flipped curve 0-4 h after induction (AUC4h, not background-subtracted), DNA-recorder readout of cleavage of the substrate (dimensionless); higher = more cleavage of the substrate by the protease variant
# Conditions: temperature: 34 °C; time window: 0-4 h after rhamnose induction
# Method: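 In vivo DNA recorder in E. coli TOP10(DE3) ΔrhaA at 34 °C. Each TEVp single-site mutant (parent TEVp 0) is paired with a single-site variant of the 7-mer TEVs (canonical ENLYFQ|S). The substrate sits between flexible linkers in a Bxb1-sfGFP-TEVs-SsrA fusion, so cleavage stabilises Bxb1 and speeds flipping of a recombination array, read by NGS. The value is the raw area under the fraction-flipped curve over 0-4 h after rhamnose induction (AUC4h), with ≥20 reads per time point. It is not background-subtracted; inactive controls average about 0.047.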
# 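Further: Bxb1 expression induced with 0.2% (w/v) L-rhamnose at OD600 near 0.5, cultures sampled hourly, flipped fraction per protease–substrate barcode pair counted by paired-end Illumina sequencing.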
Variant,area with substrate ENCYFQS,area with substrate ENEYFQS,area with substrate ENFYFQS,area with substrate ENRYFQS,area with substrate ENSYFQS,area with substrate ENTYFQS,area with substrate ENVYFQS,area with substrate ENPYFQS,area with substrate ENDYFQS,area with substrate ENNYFQS
MGESLFKGPRDYNPISSSICHLTNESDGHTTSLYGIGFGPFIITNKHLFRRNNGTLVVQSLHGVFKVKDTTTLQQHLVDGRVMIIIRMPKDFPPFPQKLKFREPQREERICLVTTNFQTKSMSSMVSDTSCTFPSGDGIFWKHWIQTKDGQCGSPLVSTRDGFIVGIHSASNFTNTNNYFTSVPKNFMELLTNQEAQQWVSGWRLNADSVLWGGHKVFMVKPEEPFQPVKEATQL [D82V],0.053,0.0421,0.0508,0.058,0.0496,0.0571,0.0495,–,–,–
MGESLFKGPRDYNPISSSICHLTNESDGHTTSLYGIGFGPFIITNKHLFRRNNGTLVVQSLHGVFKVKDTTTLQQHLVDGRDMIIIRMCKDFPPFPQKLKFREPQREERICLVTTNFQTKSMSSMVSDTSCTFPSGDGIFWKHWIQTKDGQCGSPLVSTRDGFIVGIHSASNFTNTNNYFTSVPKNFMELLTNQEAQQWVSGWRLNADSVLWGGHKVFMVKPEEPFQPVKEATQL [P89C],0.0565,–,–,–,–,–,–,0.052,–,–
MGESLFKGPRDYNPISSSICHLTNESDGHTTSLYGIGFGPFIITNKHLFRRNNGTLVVQSLHGVFHVKDTTTLQQHLVDGRDMIIIRMPKDFPPFPQKLKFREPQREERICLVTTNFQTKSMSSMVSDTSCTFPSGDGIFWKHWIQTKDGQCGSPLVSTRDGFIVGIHSASNFTNTNNYFTSVPKNFMELLTNQEAQQWVSGWRLNADSVLWGGHKVFMVKPEEPFQPVKEATQL [K66H],0.0734,–,0.0781,0.0612,0.0742,0.0596,–,–,0.0669,0.0578
MGESLFKGPRDYNPISSSICHLTNESDGHTTSLYGIGFGPFIITNKHLFRRNNGTLVVQSLHGVFAVKDTTTLQQHLVDGRDMIIIRMPKDFPPFPQKLKFREPQREERICLVTTNFQTKSMSSMVSDTSCTFPSGDGIFWKHWIQTKDGQCGSPLVSTRDGFIVGIHSASNFTNTNNYFTSVPKNFMELLTNQEAQQWVSGWRLNADSVLWGGHKVFMVKPEEPFQPVKEATQL [K66A],0.0631,–,–,0.0781,–,–,–,–,–,–
MGESLFKGPRDYNPISSSICHLTNESDGHTTSLYGIGFGPFIITNKHLFRRNNGTLVVQSLHGVFEVKDTTTLQQHLVDGRDMIIIRMPKDFPPFPQKLKFREPQREERICLVTTNFQTKSMSSMVSDTSCTFPSGDGIFWKHWIQTKDGQCGSPLVSTRDGFIVGIHSASNFTNTNNYFTSVPKNFMELLTNQEAQQWVSGWRLNADSVLWGGHKVFMVKPEEPFQPVKEATQL [K66E],0.0693,0.0646,–,0.056,0.051,–,0.0815,0.0547,–,–
MGESLFKGPRDYNPISSSICHLTNESDGHTTSLYGIGFGPFIITNKHLFRRNNGTLVVQSLHGVFKVKDTTTLQQHLVDGRDMIIIRMPKDFPPFPQKLKFRPPQREERICLVTTNFQTKSMSSMVSDTSCTFPSGDGIFWKHWIQTKDGQCGSPLVSTRDGFIVGIHSASNFTNTNNYFTSVPKNFMELLTNQEAQQWVSGWRLNADSVLWGGHKVFMVKPEEPFQPVKEATQL [E103P],0.0508,–,–,0.0608,–,–,0.072,–,0.0641,–
MGESLFKGPRDYNPISSSICHLTNESDGHTTSLYGIGFGPFIITNKHLFRRNNGTLVVQSLHGVFKVKDTTTLQQHLVDGRDMIIIRMPKDFPPFPQKLKFRSPQREERICLVTTNFQTKSMSSMVSDTSCTFPSGDGIFWKHWIQTKDGQCGSPLVSTRDGFIVGIHSASNFTNTNNYFTSVPKNFMELLTNQEAQQWVSGWRLNADSVLWGGHKVFMVKPEEPFQPVKEATQL [E103S],0.0625,–,0.0699,0.0696,0.07,–,–,–,–,–
MGESLFKGPRDYNPISSSICHLTNESDGHTTSLYGIGFGPFIITNKHLFRRNNGTLVVQSLHGVFKVKDTTTLQQHLVDGRDMIIIRMPKDFPPNPQKLKFREPQREERICLVTTNFQTKSMSSMVSDTSCTFPSGDGIFWKHWIQTKDGQCGSPLVSTRDGFIVGIHSASNFTNTNNYFTSVPKNFMELLTNQEAQQWVSGWRLNADSVLWGGHKVFMVKPEEPFQPVKEATQL [F95N],0.0582,–,0.0627,–,0.0562,–,–,–,0.0576,0.0548
MGESLFKGPRDYNPISSSICHLTNESDGHTTSLYGIGFGPFIITNKHLFRRNNGTLVVQSLHGVFKVKDTTTLQQHLVDGRDMIIIRMPKDFPPFPQKLKFREPQREERICLYTTNFQTKSMSSMVSDTSCTFPSGDGIFWKHWIQTKDGQCGSPLVSTRDGFIVGIHSASNFTNTNNYFTSVPKNFMELLTNQEAQQWVSGWRLNADSVLWGGHKVFMVKPEEPFQPVKEATQL [V113Y],0.0722,0.0648,–,0.0614,0.0695,–,–,–,0.0598,0.0404
MGESLFKGPRDYNPISSSICHLTNESDGHTTSLYGIGFGPFIITNKHLFRRNNGTLVVQSLHGVFKVKFTTTLQQHLVDGRDMIIIRMPKDFPPFPQKLKFREPQREERICLVTTNFQTKSMSSMVSDTSCTFPSGDGIFWKHWIQTKDGQCGSPLVSTRDGFIVGIHSASNFTNTNNYFTSVPKNFMELLTNQEAQQWVSGWRLNADSVLWGGHKVFMVKPEEPFQPVKEATQL [D69F],0.0493,0.0534,–,0.0576,0.0645,0.0622,–,–,0.067,–
MGESLFKGPRDYNPISSSICHLTNESDGHTTSLYGIGFGPFIITNKHLFRRNNGTLVVQSLHGVFKVKDTTTLQQHLVDGRDMIIIRMPKDFPPFPQKLKFNEPQREERICLVTTNFQTKSMSSMVSDTSCTFPSGDGIFWKHWIQTKDGQCGSPLVSTRDGFIVGIHSASNFTNTNNYFTSVPKNFMELLTNQEAQQWVSGWRLNADSVLWGGHKVFMVKPEEPFQPVKEATQL [R102N],0.0486,–,–,–,–,–,0.0451,–,0.0456,–

# Same assay, conditions: temperature: 34 °C; time window: 0-4 h after rhamnose induction
Variant,area with substrate ENQYFQS,area with substrate ENHYFQS,area with substrate ENKYFQS,area with substrate ENGYFQS,area with substrate ENYYFQS,area with substrate ENMYFQS,area with substrate ENWYFQS
MGESLFKGPRDYNPISSSICHLTNESDGHTTSLYGIGFGPFIITNKHLFRRNNGTLVVQSLHGVFHVKDTTTLQQHLVDGRDMIIIRMPKDFPPFPQKLKFREPQREERICLVTTNFQTKSMSSMVSDTSCTFPSGDGIFWKHWIQTKDGQCGSPLVSTRDGFIVGIHSASNFTNTNNYFTSVPKNFMELLTNQEAQQWVSGWRLNADSVLWGGHKVFMVKPEEPFQPVKEATQL [K66H],0.0706,–,–,–,–,–,–
MGESLFKGPRDYNPISSSICHLTNESDGHTTSLYGIGFGPFIITNKHLFRRNNGTLVVQSLHGVFAVKDTTTLQQHLVDGRDMIIIRMPKDFPPFPQKLKFREPQREERICLVTTNFQTKSMSSMVSDTSCTFPSGDGIFWKHWIQTKDGQCGSPLVSTRDGFIVGIHSASNFTNTNNYFTSVPKNFMELLTNQEAQQWVSGWRLNADSVLWGGHKVFMVKPEEPFQPVKEATQL [K66A],–,0.063,0.0736,–,–,–,–
MGESLFKGPRDYNPISSSICHLTNESDGHTTSLYGIGFGPFIITNKHLFRRNNGTLVVQSLHGVFEVKDTTTLQQHLVDGRDMIIIRMPKDFPPFPQKLKFREPQREERICLVTTNFQTKSMSSMVSDTSCTFPSGDGIFWKHWIQTKDGQCGSPLVSTRDGFIVGIHSASNFTNTNNYFTSVPKNFMELLTNQEAQQWVSGWRLNADSVLWGGHKVFMVKPEEPFQPVKEATQL [K66E],0.0638,0.0603,–,0.0554,0.0526,–,–
MGESLFKGPRDYNPISSSICHLTNESDGHTTSLYGIGFGPFIITNKHLFRRNNGTLVVQSLHGVFKVKDTTTLQQHLVDGRDMIIIRMPKDFPPFPQKLKFRPPQREERICLVTTNFQTKSMSSMVSDTSCTFPSGDGIFWKHWIQTKDGQCGSPLVSTRDGFIVGIHSASNFTNTNNYFTSVPKNFMELLTNQEAQQWVSGWRLNADSVLWGGHKVFMVKPEEPFQPVKEATQL [E103P],0.0529,0.06,0.0566,–,–,0.0642,–
MGESLFKGPRDYNPISSSICHLTNESDGHTTSLYGIGFGPFIITNKHLFRRNNGTLVVQSLHGVFKVKDTTTLQQHLVDGRDMIIIRMPKDFPPFPQKLKFRSPQREERICLVTTNFQTKSMSSMVSDTSCTFPSGDGIFWKHWIQTKDGQCGSPLVSTRDGFIVGIHSASNFTNTNNYFTSVPKNFMELLTNQEAQQWVSGWRLNADSVLWGGHKVFMVKPEEPFQPVKEATQL [E103S],–,0.0476,–,–,–,–,–
MGESLFKGPRDYNPISSSICHLTNESDGHTTSLYGIGFGPFIITNKHLFRRNNGTLVVQSLHGVFKVKDTTTLQQHLVDGRDMIIIRMPKDFPPNPQKLKFREPQREERICLVTTNFQTKSMSSMVSDTSCTFPSGDGIFWKHWIQTKDGQCGSPLVSTRDGFIVGIHSASNFTNTNNYFTSVPKNFMELLTNQEAQQWVSGWRLNADSVLWGGHKVFMVKPEEPFQPVKEATQL [F95N],0.0471,–,–,–,0.0487,–,0.0414
MGESLFKGPRDYNPISSSICHLTNESDGHTTSLYGIGFGPFIITNKHLFRRNNGTLVVQSLHGVFKVKDTTTLQQHLVDGRDMIIIRMPKDFPPFPQKLKFREPQREERICLYTTNFQTKSMSSMVSDTSCTFPSGDGIFWKHWIQTKDGQCGSPLVSTRDGFIVGIHSASNFTNTNNYFTSVPKNFMELLTNQEAQQWVSGWRLNADSVLWGGHKVFMVKPEEPFQPVKEATQL [V113Y],0.0587,–,0.0503,–,–,0.0655,–
MGESLFKGPRDYNPISSSICHLTNESDGHTTSLYGIGFGPFIITNKHLFRRNNGTLVVQSLHGVFKVKFTTTLQQHLVDGRDMIIIRMPKDFPPFPQKLKFREPQREERICLVTTNFQTKSMSSMVSDTSCTFPSGDGIFWKHWIQTKDGQCGSPLVSTRDGFIVGIHSASNFTNTNNYFTSVPKNFMELLTNQEAQQWVSGWRLNADSVLWGGHKVFMVKPEEPFQPVKEATQL [D69F],0.0588,0.0654,0.067,–,–,–,–
MGESLFKGPRDYNPISSSICHLTNESDGHTTSLYGIGFGPFIITNKHLFRRNNGTLVVQSLHGVFKVKDTTTLQQHLVDGRDMIIIRMPKDFPPFPQKLKFNEPQREERICLVTTNFQTKSMSSMVSDTSCTFPSGDGIFWKHWIQTKDGQCGSPLVSTRDGFIVGIHSASNFTNTNNYFTSVPKNFMELLTNQEAQQWVSGWRLNADSVLWGGHKVFMVKPEEPFQPVKEATQL [R102N],–,0.0602,–,–,–,–,–
